Test results reported in the supplement of paper PMC11417369.
± gives the standard deviation of the averaged measurements. The list shows a part of the results.

Each sequence was assayed on PfAP2-G AP2 domain (GST-tagged) (assay: gcPBM binding intensity (ln(normalized median fluorescence intensity)); higher = stronger DNA binding).
Method in brief: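 After 1 h on an Agilent 4 × 180k array of primer-extended double-stranded 36-bp intergenic genomic probes and negative controls, bound GST-tagged P. falciparum DNA-binding domains were detected with Alexa488 anti-GST antibody and scanned at 488 nm. The domains had been expressed in E. coli, and binding took place in 1× PBS with 1% milk, 0.2 mg/ml BSA, 0.5% salmon testes DNA and 0.03% Triton X-100. Binding intensity is the highest Masliner-normalised natural-log median intensity across replicate spots of either probe orientation.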

Sequence	gcPBM binding intensity (ln)
CAAAATATTATGAATTGTACATATTTTAAAACGTTT [XGTACX_site1614]	11 ± 0.7
AGGAAATTTTTTTTTTTTTTTTTTTTTTTTTTTTAC [TGCATGCA_negctrl_site170]	9.505 ± 0.049
ATAATATATAATATAGTGCATTATTTATTAATTAAT [GTGCAC_site9852]	9.875 ± 0.035
AATGAAAAGGAACATACACACCCCATATAAATATAT [CACACA_site7588]	10.21 ± 0.071
TATTTCTTATGAAGGACATGCAATATTATTTATCTC [TGCATGCA_site683]	10.6 ± 0.4
TTTTTTTTAATTTTCTGTACAAATTTATATATACTA [XGTACX_site4251]	10.8 ± 0.49
TTATATTTTAAGAAATGTACATGATATAATTATCAA [XGTACX_site8693]	11 ± 0.6
TGGATGAGGACATACACACACACATAAGTTGATACA [CACACA_site3423]	10.9 ± 0.69
ACAAAACATAATTGTTGTACAAAAAGAATTATATAT [XGTACX_site8422]	11.2 ± 0.67
ATAATAATATAATATTCACACAATTGAAATAGTGTA [CACACA_site6083]	9.64 ± 0.12
TTTCGAATTAAAGCATGTGAAAATTTTCAAAAAATA [XGTACX_negctrl_site577]	9.95 ± 0.057
GAATCACTAATTTTTTTACACACCACAATTTAATTT [CACACA_site8311]	10.12 ± 0.049
AAATAAAAATTACAAGCATGCATTTTCCTATTTGCA [TGCATGCA_site861]	9.38 ± 0.37
GAATAAATTGTATTGTGTACATATAAAAGCATCTAA [XGTACX_site8271]	11.4 ± 0.78
AAAAAATTTTGAAATTGTACATATATAAAAAATATA [XGTACX_site2629]	10.9 ± 0.57
TTTAAATATATTAATACACACACGATATGTACAAAA [CACACA_site539]	11.3 ± 0.67
TATAAATATACAAAGGTGCATAAAAAGTTATGTTTT [GTGCAC_site9832]	10.1 ± 0.13
TTTCTATAATATTCTACACACCAACAACAAACATAT [CACACA_site6409]	10.4 ± 0.41
TTTTTTTTTTTTTTTACACACACAAAATATTATATG [CACACA_site2471]	9.99 ± 0.38
TATTATTTACCTTGCTAGTTCGTTCCAAATTTTATG [XGTACX_negctrl_site197]	10.35 ± 0.028
ATGTTTGATGCTACACGTACACACCTTGCAAATATT [XGTACX_site1644]	11.6 ± 1
TATATTATTCATTAAGCACACATTATTTTTATAATA [CACACA_site6056]	10 ± 0.17
AAAACTATAATAAAAGGTACACATTTATTTTTTTCT [XGTACX_site730]	11.2 ± 0.95

Sequence	gcPBM binding intensity (ln)
TTTATATGTATTAAGTGTACACATATAATGTGTTTT [XGTACX_site4890]	11.6 ± 0.87
TATTCTAATATATGCATACACACAAATGTGAATATA [CACACA_site2143]	9.96 ± 0.13
CACATTATGTATCATACACACAAATAAATATAGAAT [CACACA_site609]	10.4 ± 0.18
ATTTTAAATATTTGTGGTACCCCTTTTTTGTAACAA [XGTACX_site5590]	11.8 ± 1.1
TAAAAAAGAACAGAAACACACAAATAAAATAAAATT [CACACA_site1758]	9.96 ± 0.11
CAAAATTGAAGGAACACACATACATATATATATATG [CACACA_site179]	10.2 ± 0.24
AAATAAAAAGGGTGCACACAAAAATATATATATATA [CACACA_site1728]	10.8 ± 0.88
CTTTGTGGTATAGATACACACTATATTAATATGAAC [CACACA_site7081]	10.3 ± 0.17
TCATATTTTACATATGCATGTTAATAATACAAACAT [TGCATGCA_site994]	9.765 ± 0.021
TTTTTTTCGTATATTACACACTATAAATAGAAATTA [CACACA_site6278]	10 ± 0.25
ATTTATTTATGTATTTGTACGTATATATTTATGCAT [XGTACX_site5218]	11.3 ± 0.83
GTATAACAACTGATAAAAGAAAAAAAATTTATTATT [CACACA_negctrl_site377]	9.73 ± 0.17
ATAATATTTTTAAACTGTACTTTTATAAACACTTAT [XGTACX_site2625]	11.5 ± 0.98
AATAGTTATAAATATAAATATATATATATATATATA [CACACA_negctrl_site414]	9.89 ± 0.56
AATAAATATTCATTTTGTACATATTTTTCGTATATG [XGTACX_site6104]	10.9 ± 0.57
TTACCATAAGTATGTGGTACACTTTAAATGAAGATA [XGTACX_site6972]	11.4 ± 0.83
ATATTATGTCTACATAAACACACATATATATAAAAA [CACACA_site7976]	10.09 ± 0.042
TTAACATCAAAATATGCACACAAACAATTAGCGGTA [CACACA_site8801]	10.1 ± 0.085
TATATATATAAATACACACACACCCTAAAAATATAT [CACACA_site4970]	10.3 ± 0.24
TTTTCATTCTTTTCCTTTGATTTACAATAGTATATT [GTGCAC_negctrl_site687]	9.85 ± 0.057
TAAAAGTTCACCTGTACACACATATATATCTGTACA [CACACA_site5019]	11.5 ± 0.59
TCATTATATTATTCTTGTACTTATATCCTTTTTTGA [XGTACX_site5320]	11.2 ± 0.52
CAAAATATTATCATGATGCACTTTACACTCTAAGGT	9.97

Sequence	gcPBM binding intensity (ln)
AAAAAATAAAAGTGGGGTACATGTCATTATGTGCAT [XGTACX_site3753]	11.4 ± 0.84
AGGCCTTTTAGTATTTCACACACGTAAATGTGTATA [CACACA_site8284]	10.02 ± 0.049
ATTTGTTTAAGTCACGAACACACATATATCATCAAT [CACACA_site985]	10.2 ± 0.19
ATTATTTACCACAACACACAAATATTTACCAATCAT [CACACA_site5472]	10.3 ± 0.18
AATATATACATACATACATGCACATATATATATATA [TGCATGCA_site393]	10.2 ± 0.31
AAATAGTTGTTATGGGTGCAAACCACATATATATAA [GTGCAC_site9428]	10.3 ± 0.28
GTTTATTAGGAATTATGTACACAGTTTTATAAAGAA [XGTACX_site2994]	11.5 ± 1
AATATAATATATTGCACACAAAAAGTGAATTATTCT [CACACA_site1684]	10.12 ± 0.085
TTGCAGTATTTCGGAACACACAAACATAAATATGTA [CACACA_site5307]	10.2 ± 0.3
AAATTAAATGTAAGCACACATAAATTATACGCATAT [CACACA_site3335]	10.145 ± 0.007
ACATTGAATAAATAATGTACATATATAATATATATT [XGTACX_site95]	11.1 ± 0.6
ATTATATTATATTATACATGCATAATATTATATAAA [TGCATGCA_site647]	9.7 ± 0.2
TTATTACACAAATGGTGTACTTTTGAGGAACCAAAA [XGTACX_site4279]	11.6 ± 0.92
AAATATTATTCATTTTGTACGTATAATTTTTAATGA [XGTACX_site3509]	11.5 ± 0.83
GATCTTTCACATATATATATAAAGGATATTATGGTA [CACACA_negctrl_site522]	9.9 ± 0.12
AGTAGTCTGGAGAAAAGTACACAGTATCTGGTAGCT [XGTACX_site2544]	11.6 ± 1
TATAATAATCCACAAGCACACACACCCACATATATA [CACACA_site8343]	10.4 ± 0.38
TTTTTTTTTTTTTACACACCCAAATCACATACATAT [CACACA_site6089]	10.4 ± 0.49
TATGCATATACACAAGCACACATATATATATATATA [CACACA_site8266]	10.1 ± 0.24
AAAAAAAAAAAAAAAAAAACTAATATAATAAAAATA [TGCATGCA_negctrl_site150]	10.5 ± 0.33
AAAAAAATAATATAATATTAAATCTTAGTTAATAAA [GTGCAC_negctrl_site658]	9.68 ± 0.26
TGTAATTTTTTACGTTGTACATATATTAACAATATA [XGTACX_site3991]	11.1 ± 0.83
ATATTATATTTACATAGTACACTATATGTATATATA [XGTACX_site2101]	10.9 ± 0.69

Sequence	gcPBM binding intensity (ln)
AACATCTTATCATCATGTACGAAGCAGTTTTATAAG [XGTACX_site2490]	10.7 ± 0.45
TATAATAAATATACTGGTACACAAATATATATATTT [XGTACX_site7741]	11.3 ± 0.81
TTACATATTTTCATTTGTACATATTCATTTTTTTTC [XGTACX_site6988]	10.7 ± 0.38
AAATAACCCACGTGCATGCACTTCAATAACTGAACT	10.3 ± 0.28
TAAAAAAGAAAAAGAGCACACAAAAATATTTAACCT [CACACA_site8885]	10.12 ± 0.078
TATATATTTATATATTGTACACTCTTATGTAGTGTA [XGTACX_site210]	10.8 ± 0.81
ATTTTTATATTTAATACACACATAAAATCATACCAT [CACACA_site23]	10.3 ± 0.33
ATGTCAGGGAAAAAAACACACAAGAGTATGATATGT [CACACA_site2180]	10.03 ± 0.071
TTTTCCCTTTTTTCCGCACACAATAAAATAAATAAA [CACACA_site2807]	10.3 ± 0.53
TACCATAATCAATGCACACATAACAAAATATTATTA [CACACA_site2722]	9.96 ± 0.16
TGTAATAAAATAATTAGTACACATATATGTATATTT [XGTACX_site5896]	11.4 ± 0.93
TGGTATATACGACACACACACATATGTATAAATATA [CACACA_site6561]	10.41 ± 0.049
TATTTTTAAAAGTTAACAGAAAAAATATAAATAAAT [GTGCAC_negctrl_site295]	10.1 ± 0.32
ATATATATATATTTTACACACAATGGAGAAAAAAAT [CACACA_site644]	10.2 ± 0.22
TTTATCATGAACAGAAGTACATTTATATCAATGTCT [XGTACX_site6470]	11.1 ± 0.84
ATATATATATAATGTTGTACGTTTTATTCTCCCATT [XGTACX_site8071]	11.4 ± 0.81
TTTACACTTTTTTTTGTACACACTAAAAAGATTAAC [CACACA_site3933]	11.4 ± 0.91
AGGGCATATATATATGCACACATACATATATACATG [CACACA_site9282]	10 ± 0.028
AATATTATGATATTATGTACATATTAAAAGCACCAC [XGTACX_site6236]	11.3 ± 0.72
TGTTGTTACCTATATACACACATATAAATATTATAG [CACACA_site7180]	10.4 ± 0.37
